Measurements from patent US20170065663A1, “SUBSTANCE AND METHOD FOR TREATING INFLUENZA” (priority 2014, published 2017).

Test system: influenza virus subtypes H1N1, H3N2, H5N1 and H7N9
Parameters: species or system mice, cotton rats and ferrets
Settings: in vivo

## CCOC(=O)C1=C[C@@H](OC(CC)CC)[C@H](NC(C)=O)[C@@H](N)C1 [Tamiflu®, oseltamivir]
  symptom reduction compared with Sar^9, Met (O2)^11-Substance P-treated subjects: did not exhibit the symptom reduction produced in the subjects treated with Sar^9, Met (O2)^11-Substance P
